Data from the supplement of paper PMC10126150.
Sequences with one replicate were seen in a single cluster, so their values are uncertain.
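Further: ATP exposure 15 min at 22 °C before imaging.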

What follows are sequences tested on ATP (assay: switch fluorescence ratio, 500 uM ATP over buffer (Cy3 cluster intensity, sum of 5 cycles each) (fold (ratio)); higher = stronger signal-on switching upon ATP binding; sequences stand for … in TCGTCGGCAGCGTCAGATGTGTATAAGAGACAGTTTTTTTTTTTTTTTTTTTTTTTTT…TC). Settings: aptamer strand: ATP DNA aptamer (quencher-CACCTGGGGGAGTATTGCGGAGGAAGG + anchor), 100 nM annealed; ATP concentration: 500 uM; one replicate.
Method in brief: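 Between each of five buffer/ATP cycles, the flow-cell was stripped with NaOH and re-annealed. Each cycle imaged Cy3-labelled switching-strand clusters, annealed to 100 nM quencher-labelled ATP aptamer on a modified Illumina MiSeq flow-cell, first in selection buffer and then after 15 min with 500 uM ATP at 22 °C. The fluorescence ratio is summed target-cycle over summed buffer-cycle Cy3 intensity per cluster, averaged per switch-domain sequence, with clusters outside 100-1000 RFU excluded.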
With TGTTGTCGGA the switch fluorescence ratio was 1.09. In the case of TGTTTACCAT, the switch fluorescence ratio is reported as 1.02. In the case of TGTTTAGCGA, the switch fluorescence ratio is reported as 1.02. TGTTTCATAA gave a switch fluorescence ratio of 0.987. TGTTTCGCT was tested, and the switch fluorescence ratio was 0.987. With TGTTTCTGT the switch fluorescence ratio was 0.998. Work on TGTTTCTTGT yielded a switch fluorescence ratio of 1.01. In the case of TGTTTGGTGA, the switch fluorescence ratio is reported as 0.994. TGTTTGTACT was tested, and the switch fluorescence ratio was 1.02. TGTTTTATC showed a switch fluorescence ratio of 0.99. TTAAAATTGG showed a switch fluorescence ratio of 1.08. In the case of TTAAACCAGC, the switch fluorescence ratio is reported as 1.01. With TTAAACCAGG the switch fluorescence ratio was 3.27. In the case of TTAAACGGGC, the switch fluorescence ratio is reported as 1.04. In the case of TTAAACTTCT, the switch fluorescence ratio is reported as 1.06. For TTAAAGAGCC, the switch fluorescence ratio was 1.01. For TTAAAGATAG, the switch fluorescence ratio was 1.05. TTAAAGATCG was tested, and the switch fluorescence ratio was 1.07. In the case of TTAAAGCACA, the switch fluorescence ratio is reported as 1.11. Work on TTAAAGGCAC yielded a switch fluorescence ratio of 1.18. For TTAAAGGTCA, the switch fluorescence ratio was 0.956. In the case of TTAAAGTATG, the switch fluorescence ratio is reported as 1.16. For TTAAAGTCCA, the switch fluorescence ratio was 0.99. TTAAATGCTG was tested, and the switch fluorescence ratio was 1.02. With TTAAATTCG the switch fluorescence ratio was 1.02. Sequence TTAACCGGTC has a switch fluorescence ratio of 1.05. TTAACGAAA was tested, and the switch fluorescence ratio was 0.985. TTAACGCACA showed a switch fluorescence ratio of 1.77. TTAACGGACG gave a switch fluorescence ratio of 1.07. TTAACGGAG was tested, and the switch fluorescence ratio was 0.99. TTAACGTGCA was tested, and the switch fluorescence ratio was 0.969. With TTAACTAAGG the switch fluorescence ratio was 0.984. TTAACTCCTT showed a switch fluorescence ratio of 1.05. TTAACTCTAC was tested, and the switch fluorescence ratio was 1.15. TTAAGAACTT showed a switch fluorescence ratio of 0.994. TTAAGATATG was tested, and the switch fluorescence ratio was 1.06. Sequence TTAAGATTAC has a switch fluorescence ratio of 1.03. In the case of TTAAGCACTA, the switch fluorescence ratio is reported as 1.24. TTAAGCCCCA was tested, and the switch fluorescence ratio was 1.01. Work on TTAAGCGTCT yielded a switch fluorescence ratio of 1.07. TTAAGGACGA was tested, and the switch fluorescence ratio was 1.05. TTAAGGAGCC gave a switch fluorescence ratio of 1.01. In the case of TTAAGGGCGT, the switch fluorescence ratio is reported as 1.02. TTAAGGGGTC was tested, and the switch fluorescence ratio was 1.06. Work on TTAAGGTACA yielded a switch fluorescence ratio of 1.11. TTAAGTATCA gave a switch fluorescence ratio of 0.947. TTAAGTATCT was tested, and the switch fluorescence ratio was 1.05. TTAAGTATGA showed a switch fluorescence ratio of 0.966. TTAAGTCGTC gave a switch fluorescence ratio of 1.04. Work on TTAATAACCT yielded a switch fluorescence ratio of 1.82. TTAATATATC showed a switch fluorescence ratio of 0.987. TTAATCCAGA showed a switch fluorescence ratio of 0.977. TTAATCGAAT was tested, and the switch fluorescence ratio was 1.05. Work on TTAATGAAGT yielded a switch fluorescence ratio of 0.985. For TTAATGTGTG, the switch fluorescence ratio was 0.947. With TTAATTAGCC the switch fluorescence ratio was 0.993. For TTAATTAGT, the switch fluorescence ratio was 1.06. TTAATTGAAC showed a switch fluorescence ratio of 0.977. Work on TTAATTTCAA yielded a switch fluorescence ratio of 1. TTAATTTGCC gave a switch fluorescence ratio of 0.916. Sequence TTACAAACAG has a switch fluorescence ratio of 1.08. With TTACAAAGGT the switch fluorescence ratio was 0.986. With TTACAATAAA the switch fluorescence ratio was 1. TTACAGAGTG showed a switch fluorescence ratio of 1.02. With TTACAGATC the switch fluorescence ratio was 1.06. With TTACAGGCTG the switch fluorescence ratio was 1.03. TTACATTAGT showed a switch fluorescence ratio of 0.989. In the case of TTACCTCGGT, the switch fluorescence ratio is reported as 1.02. TTACCTGTCA was tested, and the switch fluorescence ratio was 1. TTACGAACTA gave a switch fluorescence ratio of 1.31. TTACGATCTT showed a switch fluorescence ratio of 0.99. For TTACGCTTGG, the switch fluorescence ratio was 1.01. With TTACGGAAAG the switch fluorescence ratio was 1.03. Sequence TTACGGAAAT has a switch fluorescence ratio of 1.05. TTACGGAGA was tested, and the switch fluorescence ratio was 1.1. TTACGGGAGG showed a switch fluorescence ratio of 1.07. Sequence TTACGGGGGC has a switch fluorescence ratio of 1.01. TTACGGTTGT was tested, and the switch fluorescence ratio was 1.03. Work on TTACGTGCGA yielded a switch fluorescence ratio of 0.973. Work on TTACTAGAGA yielded a switch fluorescence ratio of 1.03. With TTACTGACAT the switch fluorescence ratio was 1.16. Sequence TTACTGGCTT has a switch fluorescence ratio of 0.992. Work on TTACTTAAAT yielded a switch fluorescence ratio of 1.08. In the case of TTACTTAGT, the switch fluorescence ratio is reported as 1.04. TTACTTGGGG gave a switch fluorescence ratio of 1.02. With TTACTTTGAT the switch fluorescence ratio was 0.998. In the case of TTAGAAATT, the switch fluorescence ratio is reported as 1.03. TTAGAAGAGT was tested, and the switch fluorescence ratio was 0.98. Sequence TTAGAATTT has a switch fluorescence ratio of 1.03. TTAGACGCCG gave a switch fluorescence ratio of 1.03. TTAGACTACG was tested, and the switch fluorescence ratio was 1.08. TTAGACTTAC was tested, and the switch fluorescence ratio was 1.28. TTAGAGTCCA was tested, and the switch fluorescence ratio was 1.01. For TTAGAGTGAA, the switch fluorescence ratio was 0.978. With TTAGAGTGAG the switch fluorescence ratio was 1.03. TTAGAGTTAG gave a switch fluorescence ratio of 1. Sequence TTAGAGTTGA has a switch fluorescence ratio of 1. Sequence TTAGATCCTT has a switch fluorescence ratio of 1. With TTAGATGTGG the switch fluorescence ratio was 1. With TTAGCAGTTA the switch fluorescence ratio was 1.26. In the case of TTAGCATCTC, the switch fluorescence ratio is reported as 1.28. With TTAGCCCTG the switch fluorescence ratio was 1.01. For TTAGCGTCG, the switch fluorescence ratio was 1.01. Work on TTAGCGTGTC yielded a switch fluorescence ratio of 1. For TTAGCTCGT, the switch fluorescence ratio was 0.994. For TTAGCTGTGA, the switch fluorescence ratio was 1.02. Work on TTAGCTTATT yielded a switch fluorescence ratio of 0.983. TTAGGAAAAA gave a switch fluorescence ratio of 0.982. TTAGGACGGT was tested, and the switch fluorescence ratio was 0.987. TTAGGAGACG was tested, and the switch fluorescence ratio was 1.11. Work on TTAGGATCTG yielded a switch fluorescence ratio of 0.986. Sequence TTAGGATTGA has a switch fluorescence ratio of 1.04. In the case of TTAGGCACCT, the switch fluorescence ratio is reported as 1.11. Work on TTAGGCGC yielded a switch fluorescence ratio of 0.964. Sequence TTAGGCTTTA has a switch fluorescence ratio of 1.09. For TTAGGGAGC, the switch fluorescence ratio was 1.02. TTAGGGCGGC showed a switch fluorescence ratio of 1.01. With TTAGGTACCA the switch fluorescence ratio was 0.999. In the case of TTAGGTACTC, the switch fluorescence ratio is reported as 1.1. With TTAGGTGTAG the switch fluorescence ratio was 1.02. Sequence TTAGTAAAAA has a switch fluorescence ratio of 1.09. For TTAGTAGAT, the switch fluorescence ratio was 0.993. TTAGTATCCC gave a switch fluorescence ratio of 1.04. With TTAGTGATGG the switch fluorescence ratio was 1.01. Sequence TTAGTGGACG has a switch fluorescence ratio of 0.938. With TTAGTGTTCG the switch fluorescence ratio was 0.977. Sequence TTAGTGTTGC has a switch fluorescence ratio of 1.06. TTAGTTAAGC gave a switch fluorescence ratio of 1.05. TTAGTTGCAG was tested, and the switch fluorescence ratio was 0.987. With TTAGTTTG the switch fluorescence ratio was 1.01. Sequence TTAGTTTT has a switch fluorescence ratio of 0.953. Sequence TTATAAAAGC has a switch fluorescence ratio of 0.968. Sequence TTATAAAGTG has a switch fluorescence ratio of 1.05. Work on TTATAACCAA yielded a switch fluorescence ratio of 0.999. TTATAACCCA showed a switch fluorescence ratio of 1.02. TTATAAGAAT showed a switch fluorescence ratio of 0.978. With TTATACATTT the switch fluorescence ratio was 1.02. Work on TTATACCATG yielded a switch fluorescence ratio of 1. In the case of TTATACTGAT, the switch fluorescence ratio is reported as 1.02. In the case of TTATAGATCG, the switch fluorescence ratio is reported as 0.956. With TTATAGCGAT the switch fluorescence ratio was 1.11. TTATAGGCGA gave a switch fluorescence ratio of 1.01. Sequence TTATAGGTAG has a switch fluorescence ratio of 1.01. Work on TTATAGTC yielded a switch fluorescence ratio of 0.947. In the case of TTATAGTCTA, the switch fluorescence ratio is reported as 1.02. With TTATATAGCG the switch fluorescence ratio was 0.973. TTATATAGG gave a switch fluorescence ratio of 1.01. For TTATATATCG, the switch fluorescence ratio was 0.968. In the case of TTATATGCGA, the switch fluorescence ratio is reported as 1.01. TTATATTATT showed a switch fluorescence ratio of 1.06. TTATATTTTC gave a switch fluorescence ratio of 1.07. Sequence TTATCAAGTC has a switch fluorescence ratio of 1.05. Work on TTATCAAGTG yielded a switch fluorescence ratio of 0.99. TTATCAGAA showed a switch fluorescence ratio of 1.01. In the case of TTATCAGGAA, the switch fluorescence ratio is reported as 1.01. With TTATCAGTGC the switch fluorescence ratio was 1.02. Work on TTATCCATCG yielded a switch fluorescence ratio of 0.999. TTATCCCAAT showed a switch fluorescence ratio of 1.13. TTATCCCGGC gave a switch fluorescence ratio of 0.939. TTATCCGCAC was tested, and the switch fluorescence ratio was 3.94. Work on TTATCGCAAC yielded a switch fluorescence ratio of 1.02. Sequence TTATCGGGTG has a switch fluorescence ratio of 1.06. For TTATCTACCA, the switch fluorescence ratio was 1.05. In the case of TTATCTCCGC, the switch fluorescence ratio is reported as 3.16. In the case of TTATCTGAAC, the switch fluorescence ratio is reported as 0.985. TTATCTGGTT was tested, and the switch fluorescence ratio was 1.09. Work on TTATCTGT yielded a switch fluorescence ratio of 0.999. TTATGAGATT was tested, and the switch fluorescence ratio was 0.952. In the case of TTATGCCGTC, the switch fluorescence ratio is reported as 0.953. TTATGCGACC showed a switch fluorescence ratio of 1.23. TTATGCGCT was tested, and the switch fluorescence ratio was 0.966. Sequence TTATGCGGAA has a switch fluorescence ratio of 1.02. Work on TTATGCTG yielded a switch fluorescence ratio of 0.987. For TTATGCTGAC, the switch fluorescence ratio was 1.04. With TTATGCTTCC the switch fluorescence ratio was 1.88. Sequence TTATGGATAC has a switch fluorescence ratio of 1.76. Work on TTATGGGCA yielded a switch fluorescence ratio of 0.967. In the case of TTATGGGGT, the switch fluorescence ratio is reported as 0.986. With TTATGGTGGC the switch fluorescence ratio was 0.966. TTATGTCCGA gave a switch fluorescence ratio of 1.01. Sequence TTATTACGAC has a switch fluorescence ratio of 1.16. TTATTAGGG showed a switch fluorescence ratio of 1.16. TTATTATCTT gave a switch fluorescence ratio of 1.02. TTATTGAGAT was tested, and the switch fluorescence ratio was 1.17. Sequence TTATTGAGC has a switch fluorescence ratio of 0.994. For TTATTTCTG, the switch fluorescence ratio was 1.06. Work on TTATTTGTAG yielded a switch fluorescence ratio of 1.03. TTCAAAAAGC was tested, and the switch fluorescence ratio was 1.01. TTCAAACGGT gave a switch fluorescence ratio of 0.96. In the case of TTCAAAGA, the switch fluorescence ratio is reported as 1. With TTCAAATACG the switch fluorescence ratio was 1.02. Work on TTCAAATGCC yielded a switch fluorescence ratio of 0.994. In the case of TTCAAATGGT, the switch fluorescence ratio is reported as 1.23. Sequence TTCAACAATT has a switch fluorescence ratio of 1.05. Work on TTCAACTAGC yielded a switch fluorescence ratio of 1.05. With TTCAAGACAC the switch fluorescence ratio was 1.03. For TTCAAGCCTA, the switch fluorescence ratio was 0.993. Work on TTCAATATCG yielded a switch fluorescence ratio of 1.06. TTCAATGCTT was tested, and the switch fluorescence ratio was 1. Sequence TTCACACCGT has a switch fluorescence ratio of 1.06. For TTCACGACCT, the switch fluorescence ratio was 1.34.
